# From a collection of fitness landscapes (doi:10.1126/science.1257360)
# The other results are listed elsewhere or left out.
# B1: PhoQ; a variant is named by its letters at X, in order, P23837 (parent)
# chain: MKKLLRLFFPLSLRVRFLLATAAVVLVLSLAYGMVALIGYSVSFDKTTFRLLRGESNLFYTLAKWENNKLHVELPENIDKQSPTMTLIYDENGQLLWAQRDVPWLMKMIQPDWLKSNGFHEIEADVNDTSLLLSGDHSIQQQLQEVREDDDDAEMTHSVAVNVYPATSRMPKLTIVVVDTIPVELKSSYMVWSWFIYVLSANLLLVIPLLWVAAWWSLRPIEALAKEVRELEEHNRELLNPATTRELTSLVRNLNRLLKSERERYDKYRTTLTDLTHSLKTPLXXLQXXLRSLRSEKMSVSDAEPVMLEQISRISQQIGYYLHRASMRGGTLLSRELHPVAPLLDNLTSALNKVYQRKGVNISLDISPEISFVGEQNDFVEVMGNVLDNACKYCLEFVEISARQTDEHLYIVVEDDGPGIPLSKREVIFDRGQRVDTLRPGQGVGLAVAREITEQYEGKIVAGESMLGGARMEVIFGRQHSAPKDE
# Variants of: B1
# Experiment: enrichment ratio after two sorts for PhoP signalling (ratio (wild type AVST 3.29)); higher = more functional
# Conditions: with PhoP (E. coli)
row,Variant,enrichment ratio
1,AQLN,31.6
2,IDYC,≤ 0.25
3,MCDY,≤ 0.25
4,HYDV,≤ 0.25
5,ETQL,≤ 0.25
6,DKEW,≤ 0.25
7,LGIW,≤ 0.25
8,DQCF,≤ 0.25
9,NYRD,≤ 0.25
10,NDPG,≤ 0.25
11,FPVQ,≤ 0.25
12,NHRF,≤ 0.25
13,DFLA,≤ 0.25
14,TCRH,≤ 0.25
15,VTHD,≤ 0.25
16,DHTV,≤ 0.25
17,DTWA,≤ 0.25
18,PSHM,≤ 0.25
19,KCSA,≤ 0.25
20,APAT,≤ 0.25
21,QKGQ,≤ 0.25
22,EFVT,≤ 0.25
23,YPVK,≤ 0.25
24,MKWW,≤ 0.25
25,YTTY,≤ 0.25
26,GFFP,≤ 0.25

row,Variant,enrichment ratio
1,DQMG,≤ 0.25
2,DRCQ,≤ 0.25
3,QRQQ,≤ 0.25
4,DEQC,≤ 0.25
5,AWRV,≤ 0.25
6,HEDM,≤ 0.25
7,TRIM,6.38
8,IANW,≤ 0.25
9,DLNM,≤ 0.25
10,RDII,≤ 0.25
11,PFWE,≤ 0.25
12,RVLC,≤ 0.25
13,HFIA,≤ 0.25
14,FRKY,≤ 0.25
15,VVKS,≤ 0.25
16,CCPS,≤ 0.25
17,WTPH,≤ 0.25
18,SHHY,≤ 0.25
19,FRRF,≤ 0.25
20,CFPL,≤ 0.25
21,SCCI,9.92
22,NGMW,≤ 0.25
23,NGAG,≤ 0.25
24,AGKR,≤ 0.25
25,TFGD,≤ 0.25
26,RRLP,≤ 0.25

row,Variant,enrichment ratio
1,FEKS,≤ 0.25
2,LVGK,≤ 0.25
3,SDRL,≤ 0.25
4,YHDK,≤ 0.25
5,LVHL,≤ 0.25
6,HALP,≤ 0.25
7,RESQ,≤ 0.25
8,LGKF,≤ 0.25
9,WRKK,≤ 0.25
10,VWTD,≤ 0.25
11,LVSV,≤ 0.25
12,NPTH,≤ 0.25
13,KTDL,≤ 0.25
14,LHAM,≤ 0.25
15,QSTS,≤ 0.25
16,KPGH,≤ 0.25
17,FVHF,≤ 0.25
18,WLER,≤ 0.25
19,GYAC,≤ 0.25
20,LGDH,≤ 0.25
21,IGEM,≤ 0.25
22,KMQM,≤ 0.25
23,TMYT,≤ 0.25
24,MTWW,≤ 0.25
25,KQCP,≤ 0.25
26,DHDQ,≤ 0.25

row,Variant,enrichment ratio
1,MNKY,≤ 0.25
2,MMSA,≤ 0.25
3,RINC,≤ 0.25
4,FQVT,≤ 0.25
5,GNLM,17.5
6,SFEN,≤ 0.25
7,DWGK,≤ 0.25
8,HSMG,1.29
9,FSQC,≤ 0.25
10,LDAH,≤ 0.25
11,IRNP,≤ 0.25
12,VRDP,≤ 0.25
13,IFNC,≤ 0.25
14,QNHF,≤ 0.25
15,IMMF,≤ 0.25
16,NNAV,5.85
17,AKMV,6.86
18,MLVC,≤ 0.25
19,HNPN,≤ 0.25
20,MNQF,≤ 0.25
21,VCRR,≤ 0.25
22,GKQE,≤ 0.25
23,KHWW,≤ 0.25
24,ARVY,≤ 0.25
25,MDTS,≤ 0.25
26,MYCH,≤ 0.25

row,Variant,enrichment ratio
1,TPHQ,≤ 0.25
2,FMGR,≤ 0.25
3,IPWA,≤ 0.25
4,DMHF,≤ 0.25
5,RQDS,≤ 0.25
6,QPVD,≤ 0.25
7,QRFT,≤ 0.25
8,YATK,≤ 0.25
9,QQMY,≤ 0.25
10,RWAG,≤ 0.25
11,GLNL,≤ 0.25
12,PKVA,≤ 0.25
13,HGCY,≤ 0.25
14,LAYL,10.5
15,GIIR,3.63
16,LKGS,≤ 0.25
17,TCKG,≤ 0.25
18,PVFT,≤ 0.25
19,YYTM,≤ 0.25
20,TMMF,≤ 0.25
21,GVNG,≤ 0.25
22,SPSD,≤ 0.25
23,WCQF,≤ 0.25
24,PVAD,≤ 0.25
25,QYHD,≤ 0.25
26,HRSR,≤ 0.25

row,Variant,enrichment ratio
1,YFAL,≤ 0.25
2,QVDW,≤ 0.25
3,VVWY,≤ 0.25
4,PNMV,≤ 0.25
5,VTNY,≤ 0.25
6,VRFP,≤ 0.25
7,SPSQ,≤ 0.25
8,VYIG,≤ 0.25
9,MRRS,≤ 0.25
10,IIQP,≤ 0.25
11,FIEG,5.56
12,MQAP,≤ 0.25
13,MEGT,≤ 0.25
14,LSFH,0.483
15,YCKL,≤ 0.25
16,IPNG,≤ 0.25
17,YMGE,≤ 0.25
18,TDCP,≤ 0.25
19,IPMD,≤ 0.25
20,VPLG,≤ 0.25
21,PLPS,≤ 0.25
22,IKYH,≤ 0.25
23,WQRC,≤ 0.25
